Test system: TM287/288_E517Q^TM288
Assay: Residual ATPase activity of E-to-Q mutant of TM287/288 in detergent
Format: biochemical, Thermotoga maritima
Conditions: TM287/288 E517Q^TM288, ATP-Mg, 25°C
Procedure: Incubation with buffers containing the same nucleotide concentration without protein served for background subtraction in these assays.

In the case of `Nc1ncnc2c1ncn2[C@@H]1O[C@H](COP(=O)(O)OP(=O)(O)OP(=O)(O)O)[C@@H](O)[C@H]1O` [ATP], the ATPase activity is reported as 0.165 ± 0.015 nmol Pi/min/mg protein, the “ATPase activity, % of wildtype” value is reported as 0.192% and the Turnover per transporter is reported as 0.0219 min⁻¹.
